# Assay results published in the supplement of paper PMC4604168 (melanoma cell lines).
# The list shows a part of the results. Many values rest on one well or one pass, so single values are uncertain.
# System: 501Mel
# Experiment: cell count relative to DMSO control; melanoma cells; higher = more viable cells
# Details: library dose: standard library concentration; 72 h
# 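Also: cells treated in 1,536-well plates, then fixed and DAPI-stained, with nuclei counted from automated high-throughput microscope images.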
row,Structure (SMILES),cell count [%]
1,"CN(NC(=O)CC(=O)NN(C)C(=S)c1ccccc1)C(=S)c1ccccc1 + Cn1cc(/C=C2\C(=O)Nc3cccnc32)c2ccccc21 [GW441756] (first compound 0.03 µM, partner dose 2 µM)",15.8
2,"CC(C)(C)c1cnc(CSc2cnc(NC(=O)C3CCNCC3)s2)o1 + O=c1cc(-c2cccc3c2Sc2ccccc2S3)oc(N2CCOCC2)c1 [KU55933] (first compound 0.05 µM, partner dose 5 µM)",92.2
3,"COc1cc2c(Oc3ccc4[nH]c(C)cc4c3F)ncnc2cc1OCCCN1CCCC1 [cediranib] + CCc1ccc(CCOc2ccc(CC3SC(=O)NC3=O)cc2)nc1 [pioglitazone] (first compound 2 µM, partner dose 10 µM)",65.9
4,"CCCCCCCCc1ccc(CCC(N)(CO)CO)cc1 [fingolimod] + CCc1ccc(CCOc2ccc(CC3SC(=O)NC3=O)cc2)nc1 [pioglitazone] (first compound 10 µM, partner dose 10 µM)",0.845
5,"NC(=O)c1ccc(N(C(N)=O)c2c(F)cccc2F)nc1-c1ccc(F)cc1F + c1cc(-c2cnn3cc(-c4ccc(OCCN5CCCCC5)cc4)cnc23)ccn1 [Dorsomorphin] (first compound 2 µM, partner dose 2 µM)",50.2
6,"NC(=O)c1ccc(N(C(N)=O)c2c(F)cccc2F)nc1-c1ccc(F)cc1F + COc1cc(N2CCC(N3CCN(C)CC3)CC2)ccc1Nc1ncc(Cl)c(Nc2ccccc2S(=O)(=O)C(C)C)n1 [NVP-TAE684] (first compound 2 µM, partner dose 0.4 µM)",78.4
7,"CC(C)(C)c1cnc(CSc2cnc(NC(=O)C3CCNCC3)s2)o1 + CCN(CC)CCCCNc1ncc2cc(-c3cc(OC)cc(OC)c3)c(NC(=O)NC(C)(C)C)nc2n1 [PD173074] (first compound 0.05 µM, partner dose 0.5 µM)",66
8,"Cc1ccc(NC(=O)c2cccc(N(C)C)c2)cc1NC(=O)c1ccc(O)cc1 + O=C1NC(=O)/C(=C/c2ccc(-c3ccc(F)cc3O)o2)S1 [AS252424] (first compound 10 µM, partner dose 5 µM)",70.3
9,"Cc1ccc(NC(=O)c2cccc(N(C)C)c2)cc1NC(=O)c1ccc(O)cc1 + COc1ccc2c(c1)CCC1C2CCC2(C)C(NCCCCCCN3C(=O)C=CC3=O)CCC12 [U73122] (first compound 10 µM, partner dose 2 µM)",77.4
10,"COc1cc2c(Oc3ccc4[nH]c(C)cc4c3F)ncnc2cc1OCCCN1CCCC1 [cediranib] + O=C1NC(=O)/C(=C/c2ccc(-c3ccc(F)cc3O)o2)S1 [AS252424] (first compound 2 µM, partner dose 5 µM)",74.8
11,"Cc1ccc(NC(=O)c2cccc(N(C)C)c2)cc1NC(=O)c1ccc(O)cc1 + COc1cc(N2CCC(N3CCN(C)CC3)CC2)ccc1Nc1ncc(Cl)c(Nc2ccccc2S(=O)(=O)C(C)C)n1 [NVP-TAE684] (first compound 10 µM, partner dose 0.4 µM)",82.9
12,"CC(C)(C)c1cnc(CSc2cnc(NC(=O)C3CCNCC3)s2)o1 + Cc1cc([N+](=O)[O-])ccc1NS(=O)(=O)c1cc(Cl)ccc1Cl [FH535] (first compound 0.05 µM, partner dose 5 µM)",75.1
13,"COc1cc2c(Oc3ccc4[nH]c(C)cc4c3F)ncnc2cc1OCCCN1CCCC1 [cediranib] + O=C(O)C(=O)Nc1sc2c(c1C(=O)O)CCNC2 [TCS401] (first compound 2 µM, partner dose 8.33333 µM)",77
14,"COc1cc2c(Oc3ccc4[nH]c(C)cc4c3F)ncnc2cc1OCCCN1CCCC1 [cediranib] + COc1ccc(COc2ccc(Cc3cnc(N)nc3N)cc2OC)cc1 [GW2580] (first compound 2 µM, partner dose 5 µM)",73.8
15,"NC(=O)c1ccc(N(C(N)=O)c2c(F)cccc2F)nc1-c1ccc(F)cc1F + Oc1cc(-c2nc(-c3ccccc3)[nH]c2-c2ccncc2)ccc1Cl [L779450] (first compound 2 µM, partner dose 1 µM)",72
16,"NC(=O)c1ccc(N(C(N)=O)c2c(F)cccc2F)nc1-c1ccc(F)cc1F + N#Cc1c(O)c2c(-c3ccc(-c4ccccc4O)cc3)csc2[nH]c1=O [A769662] (first compound 2 µM, partner dose 10 µM)",91.1
17,"CC(C)(C)c1cnc(CSc2cnc(NC(=O)C3CCNCC3)s2)o1 + O=C(Nc1ccccc1)c1cc([N+](=O)[O-])ccc1Cl [GW9662] (first compound 0.05 µM, partner dose 10 µM)",81.6
